Whole data set: some 33,000 sequences, median “E-score (-0.5 to 0.5)” near -0.041, cut for the highest 2% near 0.37. Some of the results follow.
Molecular target: T1, Ecm22 (UniProt Q05958)
T1 sequence: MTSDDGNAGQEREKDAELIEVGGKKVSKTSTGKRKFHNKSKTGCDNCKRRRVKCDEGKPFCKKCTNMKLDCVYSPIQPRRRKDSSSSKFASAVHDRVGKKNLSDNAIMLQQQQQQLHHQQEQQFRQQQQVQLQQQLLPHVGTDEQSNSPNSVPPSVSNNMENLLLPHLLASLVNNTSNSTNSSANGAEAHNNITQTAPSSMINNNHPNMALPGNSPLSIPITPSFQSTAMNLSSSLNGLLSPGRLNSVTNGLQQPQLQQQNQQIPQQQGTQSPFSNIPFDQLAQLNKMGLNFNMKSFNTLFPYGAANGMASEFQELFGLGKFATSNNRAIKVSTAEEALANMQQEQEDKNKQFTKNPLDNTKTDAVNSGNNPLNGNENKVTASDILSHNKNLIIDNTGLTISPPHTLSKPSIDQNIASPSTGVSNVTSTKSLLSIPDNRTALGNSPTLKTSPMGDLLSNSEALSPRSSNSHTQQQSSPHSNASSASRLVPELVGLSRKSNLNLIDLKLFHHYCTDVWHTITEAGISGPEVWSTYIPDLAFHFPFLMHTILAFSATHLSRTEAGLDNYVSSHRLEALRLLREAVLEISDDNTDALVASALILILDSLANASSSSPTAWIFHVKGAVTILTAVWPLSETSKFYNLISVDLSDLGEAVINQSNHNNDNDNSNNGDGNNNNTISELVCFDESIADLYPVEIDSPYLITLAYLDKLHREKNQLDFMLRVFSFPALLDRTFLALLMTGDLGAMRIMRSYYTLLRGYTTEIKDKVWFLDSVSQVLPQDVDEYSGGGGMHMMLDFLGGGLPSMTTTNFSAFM
Test: PBM E-score (8-mer binding enrichment) (E-score (-0.5 to 0.5)); higher = stronger / more preferred TF binding; most listed sequences are background and not binding sites
Details: protein concentration: 200 nM; construct: GST-full length
Outline: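 The E-score, a modified Wilcoxon-Mann-Whitney statistic, was computed by the Universal PBM Analysis Suite for every ungapped eight-base word pooled with its reverse complement. Scans behind it were normalised with masliner after bound GST-tagged yeast transcription factors were detected with fluorescent anti-GST. The proteins, at about 100-200 nM, had been applied to universal all-10-mer Agilent arrays made double-stranded by primer extension.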

Compared with ACATTATC, CTAGGCAG is lower in “PBM E-score” value: 0.135 for the first, -0.158 for the second.

Compared with AATTCCTA, CCACAACA is lower in “PBM E-score” value: 0.0294 for the first, -0.209 for the second.

Compared with GAGTCACA, ACATGGAA is lower in “PBM E-score” value: 0.0764 for the first, -0.0701 for the second.

Compared with ACACCGGT, CGACCAGC is higher in “PBM E-score” value: -0.0618 for the first, 0.0769 for the second.

First: CGTTCCGA
Second: ACCGGGAT
The “PBM E-score” value of the first is higher: 0.444 for the first, 0.0438 for the second.

Going from AGTCATAC to ACCCTACG, the “PBM E-score” value falls from 0.12 to -0.142.

Compared with GCACATCC, GTCGCAAA is higher in “PBM E-score” value: -0.102 for the first, 0.278 for the second.

First: GGGAGGCA
Second: ATCCTCTC
The “PBM E-score” value of the first is lower: -0.188 for the first, -0.128 for the second.

First: AGGCTGTA
Second: ACAAAGAT
The “PBM E-score” value of the first is lower: -0.15 for the first, -0.0464 for the second.

First: CGTACCCC
Second: ACAATATA
The “PBM E-score” value of the first is higher: 0.453 for the first, 0.243 for the second.

Compared with CTCCAGTA, CTATGCAA is lower in “PBM E-score” value: -0.0273 for the first, -0.0583 for the second.

Compared with CGCTCCTC, ACTGCCAT is lower in “PBM E-score” value: 0.193 for the first, 0.0746 for the second.

First: TAACCAGA
Second: ACGGTACC
The “PBM E-score” value of the first is lower: 0.018 for the first, 0.206 for the second.

Going from ATGTACAA to CCGAATAG, the “PBM E-score” value rises from -0.0165 to 0.0447.

Going from CATCAGTC to ACCTAGGC, the “PBM E-score” value falls from -0.184 to -0.309.

Going from ACCCCAAC to ACGCAGTG, the “PBM E-score” value rises from -0.205 to -0.00625.

Going from ACGTGGAT to ATGCGAGC, the “PBM E-score” value rises from 0.133 to 0.321.

Compared with CCACACTC, ACTCTGCT is lower in “PBM E-score” value: -0.00392 for the first, -0.207 for the second.

Going from ACACTTTC to GCACGTAC, the “PBM E-score” value rises from -0.0308 to 0.168.

Going from ATACAAAA to ACAAAGAC, the “PBM E-score” value falls from 0.131 to 0.0577.

Going from CTCTAAGC to GCTGTGTA, the “PBM E-score” value falls from 0.00902 to -0.127.

First: CATAGGGA
Second: CCCCCTCA
The “PBM E-score” value of the first is higher: -0.272 for the first, -0.37 for the second.

Going from ACTGTGTA to ATATTTTG, the “PBM E-score” value falls from 0.137 to -0.0981.

Compared with AGTTACTC, ACGCTATA is higher in “PBM E-score” value: 0.186 for the first, 0.233 for the second.

First: ATATATAA
Second: CCTTTTAG
The “PBM E-score” value of the first is higher: 0.194 for the first, -0.0518 for the second.

Going from AAATTGAC to CCCGTATA, the “PBM E-score” value rises from -0.124 to 0.471.

First: ATGTCTCA
Second: TCCTACGA
The “PBM E-score” value of the first is lower: -0.207 for the first, 0.26 for the second.

Going from TTCCCGAA to AAGCTCTC, the “PBM E-score” value falls from 0.17 to -0.212.

First: AGTGGGGA
Second: GAGCGCAA
The “PBM E-score” value of the first is lower: -0.227 for the first, -0.106 for the second.

Going from TCGTATCA to GCGGGTTA, the “PBM E-score” value falls from 0.463 to 0.166.

Compared with CGAGTCAC, CCGCGAGA is lower in “PBM E-score” value: 0.106 for the first, 0.00959 for the second.

First: AAATTATC
Second: CGTTTGAC
The “PBM E-score” value of the first is lower: 0.178 for the first, 0.326 for the second.

First: AGATTGAC
Second: GTGTAGGA
The “PBM E-score” value of the first is higher: -0.0446 for the first, -0.226 for the second.

Compared with GACGTAAC, ACAGGCGC is lower in “PBM E-score” value: -0.079 for the first, -0.11 for the second.

First: AGCAGAAG
Second: GAAGGATA
The “PBM E-score” value of the first is higher: -0.125 for the first, -0.196 for the second.

Going from CACGCGAA to CACAAGTG, the “PBM E-score” value falls from 0.103 to -0.0896.

Compared with AATCTGCA, ATTTATGA is higher in “PBM E-score” value: -0.242 for the first, -0.0687 for the second.

Compared with ATCCTTTA, GTGTATGA is higher in “PBM E-score” value: -0.159 for the first, -0.014 for the second.

Going from ATGATCGG to ACGGTTAA, the “PBM E-score” value rises from 0.0102 to 0.132.

First: AGAGGTAT
Second: GAACAAAA
The “PBM E-score” value of the first is higher: 0.111 for the first, 0.099 for the second.

First: CACTATCA
Second: TCTTTGAA
The “PBM E-score” value of the first is lower: -0.0654 for the first, -0.0346 for the second.

First: CCCACATA
Second: ACCCAGGA
The “PBM E-score” value of the first is higher: -0.0298 for the first, -0.107 for the second.

Compared with ATTTCTAG, AACCAAAA is higher in “PBM E-score” value: -0.178 for the first, -0.173 for the second.

Compared with CAGTTCAA, CGCTCCGC is higher in “PBM E-score” value: -0.138 for the first, 0.176 for the second.

First: CCAGCACA
Second: GTAGTGAA
The “PBM E-score” value of the first is lower: -0.3 for the first, -0.16 for the second.

Compared with TAGGCTAA, GGGATTTA is higher in “PBM E-score” value: -0.139 for the first, -0.0568 for the second.

First: AAGCTGTG
Second: ATGAGCTA
The “PBM E-score” value of the first is higher: -0.0491 for the first, -0.105 for the second.

Compared with GTTAAATA, ACCATCAT is lower in “PBM E-score” value: 0.115 for the first, -0.0474 for the second.

Compared with CAGCACGA, GAACGGCA is higher in “PBM E-score” value: 0.0386 for the first, 0.334 for the second.

First: GCCGCTAC
Second: AGTATGTG
The “PBM E-score” value of the first is higher: 0.0212 for the first, -0.0336 for the second.

Going from CACGTAAC to TGTGAGAA, the “PBM E-score” value rises from -0.149 to -0.146.

First: GAGAGTCA
Second: TCCACCCA
The “PBM E-score” value of the first is higher: -0.193 for the first, -0.217 for the second.

First: ACGGGATC
Second: TAAGTCTA
The “PBM E-score” value of the first is higher: 0.289 for the first, -0.254 for the second.

Going from ATCAGCTC to ATGTAGTA, the “PBM E-score” value rises from -0.0122 to 0.0421.

Going from GCACTGAA to TGTTGAAA, the “PBM E-score” value rises from -0.0899 to 0.0108.

Compared with CTTTAGGA, CGGCCCCC is lower in “PBM E-score” value: -0.187 for the first, -0.203 for the second.

Compared with CTAACCCA, AACATTCC is higher in “PBM E-score” value: -0.294 for the first, -0.251 for the second.

First: CGATTCCA
Second: GGTTAACC
The “PBM E-score” value of the first is higher: -0.0291 for the first, -0.0654 for the second.

Compared with AAGCGTCA, GGCCGCCC is lower in “PBM E-score” value: 0.0381 for the first, -0.299 for the second.

Compared with AACCTTTG, ATGAAACC is higher in “PBM E-score” value: -0.225 for the first, -0.143 for the second.

Going from AGGTTACC to CGAGGTTC, the “PBM E-score” value rises from -0.0237 to 0.214.

Compared with AATTGTGA, CGGAGTTC is higher in “PBM E-score” value: -0.00565 for the first, 0.132 for the second.

First: AGTCCCAA
Second: AGTCTTAA
The “PBM E-score” value of the first is higher: -0.193 for the first, -0.235 for the second.

Going from CCATAACA to ATTTCTAA, the “PBM E-score” value falls from -0.0704 to -0.0773.

Going from CCCAGAAC to AGCGCGAC, the “PBM E-score” value rises from -0.134 to -0.0248.

First: GTTGAGTA
Second: ACCGCTCG
The “PBM E-score” value of the first is lower: 0.023 for the first, 0.181 for the second.

First: CTAGCTAA
Second: ATTGGGTC
The “PBM E-score” value of the first is higher: -0.00655 for the first, -0.0362 for the second.

First: AATCCTAC
Second: AGTCCAGC
The “PBM E-score” value of the first is lower: -0.125 for the first, -0.0392 for the second.

First: CATCAAGC
Second: ATTCGGCA
The “PBM E-score” value of the first is lower: -0.00126 for the first, 0.186 for the second.

Compared with AATCCCTC, AGCGCGCA is higher in “PBM E-score” value: -0.105 for the first, 0.14 for the second.

Compared with CGAGCTTC, AGAACCTA is lower in “PBM E-score” value: 0.288 for the first, -0.02 for the second.

Compared with ATGTCTCG, AAGTTGAA is lower in “PBM E-score” value: 0.246 for the first, -0.174 for the second.

First: CATTTGCA
Second: CCATACTC
The “PBM E-score” value of the first is higher: 0.154 for the first, -0.115 for the second.

Compared with AGTTCAAG, ACCATCTA is lower in “PBM E-score” value: 0.112 for the first, -0.189 for the second.

First: GCCTATGA
Second: GTCACGCA
The “PBM E-score” value of the first is lower: -0.201 for the first, 0.0134 for the second.

Going from CACCACTC to CAGCAAGC, the “PBM E-score” value falls from -0.0634 to -0.134.

Compared with ACTCACTC, ACCACCGG is lower in “PBM E-score” value: -0.0529 for the first, -0.0728 for the second.

Compared with AGCGGCAA, AATTGAAC is higher in “PBM E-score” value: -0.158 for the first, -0.0075 for the second.

First: GAGCCCCA
Second: ACCCCTGG
The “PBM E-score” value of the first is higher: -0.107 for the first, -0.216 for the second.

Going from CCATACAG to ACTATAGA, the “PBM E-score” value falls from -0.0505 to -0.145.

Going from GCCATAAA to AATCCAAT, the “PBM E-score” value falls from -0.0403 to -0.116.

Going from GGTAAACC to ACCTTACT, the “PBM E-score” value rises from -0.101 to 0.15.

Compared with TAAGGCGA, GATGGATA is lower in “PBM E-score” value: 0.0658 for the first, -0.158 for the second.

Compared with AATGCGAA, AACAGAGT is lower in “PBM E-score” value: 0.202 for the first, 0.109 for the second.

Going from GTACGTAA to GTTATAAC, the “PBM E-score” value falls from 0.312 to -0.0243.

Going from ATAACTCG to CCCAAGAA, the “PBM E-score” value falls from 0.213 to -0.194.

Source: the supplement of paper PMC3334620
